{"source": "PubChem BioAssay AID624417", "about": "(National Center for Advancing Translational Sciences (NCATS), 2012)", "note": "The whole screen tested about 410,000 compounds, of which about 6,400 (1.6%) were called active. Inconclusive results, whose numbers are uncertain, are shown with a selection of clear calls. The call rests on the fitted dose curve; in most records, active means well fitted inhibition curve with a large enough effect; inconclusive means small, poorly fitted or top-dose-only effect; inactive means no such curve, though single readings can be large or run the other way. No potency is given beside an inconclusive call; the fits are too rough. Potency means the concentration at half of the fitted maximal effect; tags describe the fitted curve by direction and shape.", "data": [{"target": "Glucagon-like peptide 1 receptor (Homo sapiens) (UniProt P43220)", "sequence (P43220 whole entry, looked up)": "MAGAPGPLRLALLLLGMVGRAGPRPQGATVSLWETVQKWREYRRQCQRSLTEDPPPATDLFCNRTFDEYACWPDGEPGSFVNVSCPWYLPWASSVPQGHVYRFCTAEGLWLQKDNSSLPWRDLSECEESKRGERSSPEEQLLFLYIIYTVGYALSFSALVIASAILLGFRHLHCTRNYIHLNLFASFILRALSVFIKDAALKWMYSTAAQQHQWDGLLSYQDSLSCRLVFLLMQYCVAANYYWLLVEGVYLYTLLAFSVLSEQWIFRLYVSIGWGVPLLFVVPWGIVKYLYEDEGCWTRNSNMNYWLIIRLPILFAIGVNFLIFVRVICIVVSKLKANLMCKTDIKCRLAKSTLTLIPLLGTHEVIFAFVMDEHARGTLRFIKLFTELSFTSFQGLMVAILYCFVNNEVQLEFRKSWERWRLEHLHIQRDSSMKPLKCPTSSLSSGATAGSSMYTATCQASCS", "assay": "qHTS of GLP-1 Receptor Inverse Agonists (Inhibition Mode); further: nearly all actives have a fitted effect of over 55% in size", "details": "HEK293 GLP-1R CRE-luciferase, luminescence, 24 h, GLP-1R form is constitutively active; series mostly up to 38.3 µM", "procedure,_shortened": "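Assay principle: reduced luminescence from a cAMP-responsive reporter in HEK293 cells co-expressing a constitutively active GLP-1R. Conditions: 24 hr compound incubation, 37 deg C, 5% CO2.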", "values": [{"molecule": "COc1ccc2oc(-c3ccccc3)c(C(N)=O)c2c1", "Potency": "inactive"}, {"molecule": "CC(=O)c1ccc(OCCCC(=O)NC2CCC(C)CC2)cc1", "note": "(configuration not stated)", "Potency": "inactive"}, {"molecule": "COc1ccc(C(=O)Nc2cc(S(=O)(=O)N3CCCC3)ccc2Cl)cc1", "Potency": "inconclusive [inhibitor, partial curve, poor fit]"}, {"molecule": "Cc1ccc(C(CC(=O)Nc2cc(C)cc(C)c2)N2Cc3ccccc3C2=O)cc1", "note": "(configuration not stated)", "Potency": "inconclusive [inhibitor, partial curve, poor fit]"}, {"molecule": "CCn1cc(C(=O)O)c(=O)c2cc(F)c(N3CCN(C(=S)NC(=O)c4c(OC)cccc4OC)CC3)cc21", "Potency": "inconclusive [inhibitor, single point]"}, {"molecule": "N=c1c2c(-c3ccccc3)c(-c3ccccc3)n(Cc3ccco3)c2ncn1Cc1ccco1", "Potency": "active: 8.91 µM"}, {"molecule": "Cc1ccc(C(O)c2ncc(-c3cccc(C(F)(F)F)c3)[nH]2)c(C)c1", "note": "(configuration not stated)", "Potency": "inconclusive [inhibitor, single point]"}, {"molecule": "Cn1c(CN2CCCCC2)nc2cc(NS(=O)(=O)c3ccc(F)cc3)ccc21", "Potency": "inconclusive [inhibitor, partial curve, poor fit]"}, {"molecule": "COc1ccc(CNC(=O)C[C@H]2C[C@H](C(=O)N3CCOCC3)[C@@]3(CCC4CCCC4)c4[nH]c5cc(-c6ccco6)ccc5c4CCN3C2=O)cc1OC", "Potency": "inconclusive [inhibitor, single point]"}, {"molecule": "COc1ccccc1Cc1c(-c2ccccc2)nc2cc(C)c(Br)c(C)n12", "Potency": "inconclusive [inhibitor, partial curve, poor fit]"}, {"molecule": "Cc1cc(C(=O)OCC(=O)N2CCN(C(=O)c3ccco3)CC2)c(C)n1-c1ccc(F)cc1", "Potency": "inconclusive [inhibitor, partial curve, poor fit]"}, {"molecule": "O=C(COc1ccccc1F)N/N=C1\\CCCc2ccccc21", "Potency": "inconclusive [inhibitor, single point]"}, {"molecule": "COc1ccc(S(=O)(=O)N2CCN(C(=O)c3cc4c(s3)CCCC4)CC2)cc1", "Potency": "inconclusive [inhibitor, single point]"}, {"molecule": "COc1ccc(CC(N)c2csc(NC(=O)C(c3ccccc3)c3ccccc3)n2)cc1", "note": "(configuration not stated)", "Potency": "inconclusive [inhibitor, partial curve, poor fit]"}, {"molecule": "O=S(=O)(NCCSc1nc2ccccc2o1)c1ccccc1", "Potency": "inconclusive [inhibitor, single point]"}, {"molecule": "COc1cccc(NC(=O)CCC(=O)N2CC(C)Oc3ccc(C)cc32)c1", "note": "(configuration not stated)", "Potency": "inconclusive [inhibitor, partial curve]"}, {"molecule": "CCOC(=O)c1c(C)c(-c2ccccc2)n(CC(=O)NCCc2ccc(C)cc2)c1C", "Potency": "inactive"}, {"molecule": "CCCCc1ccc(NC(=O)COc2cccc3c(=O)n(C)ccc23)cc1", "Potency": "inconclusive [inhibitor, single point]"}, {"molecule": "O=C(CCC(=O)Nc1ccc(F)cc1)N/N=C/c1ccc(O)cc1O", "Potency": "inconclusive [inhibitor, single point]"}, {"molecule": "CN(C)C(=S)Oc1ccccc1C1SCCS1", "Potency": "inconclusive [inhibitor, partial curve]"}, {"molecule": "Cc1ccc(C(=O)NC(C(=O)Nc2ccccc2)c2ccccc2)cc1", "note": "(configuration not stated)", "Potency": "inconclusive [inhibitor, partial curve]"}, {"molecule": "O=C(c1ccc2ncsc2c1)N1CCN(c2ccc(O)cc2)CC1", "Potency": "inconclusive [inhibitor, partial curve]"}, {"molecule": "Cn1c2ccccc2c2cc(/C=N/NC(=O)c3cc(O)ccc3O)ccc21", "Potency": "inconclusive [inhibitor, partial curve, poor fit]"}, {"molecule": "CCc1ccc(NC(=O)N(Cc2ccc(C)cc2)Cc2cccn2-c2nnc(N3CCCC3=O)s2)cc1", "Potency": "inconclusive [inhibitor, partial curve, poor fit]"}, {"molecule": "CCOc1ccccc1N1CCN(C(=O)CN2C(=O)NC3(CCCC3)C2=O)CC1", "Potency": "inactive"}, {"molecule": "O=C(NCc1nc(-c2ccc(C(F)(F)F)cc2)no1)Nc1cc(Cl)cc(Cl)c1", "Potency": "inconclusive [inhibitor, partial curve, poor fit]"}, {"molecule": "C=CCn1c(=N)n(CC(=O)c2ccc(OC)cc2)c2ccccc21", "Potency": "inconclusive [inhibitor, single point]"}, {"molecule": "COc1ccc(NC(=O)CCn2nnc(-c3ccc(C)cc3)n2)cc1OC", "Potency": "inconclusive [inhibitor, partial curve, poor fit]"}, {"molecule": "O=C(Nc1cccc(N=Cc2cc(Br)cc(Br)c2O)c1)c1ccco1", "Potency": "inconclusive [inhibitor, single point]"}, {"molecule": "CC(C)(C)c1ccc(S(=O)(=O)Nc2noc3ccccc23)cc1", "Potency": "inconclusive [inhibitor, single point]"}, {"molecule": "CCc1ccc(NC(=O)CN2C(=O)C(c3ccccc3)=NC23CCCCCC3)cc1", "Potency": "inconclusive [inhibitor, partial curve, poor fit]"}, {"molecule": "O=C(N/N=C/c1c(Cl)[nH]c2ccccc12)c1ccc2c(c1)OCCO2", "Potency": "inconclusive [inhibitor, single point]"}, {"molecule": "C=CCN(c1ccccc1)S(=O)(=O)c1cccc(C(=O)Nc2ncccc2O)c1", "Potency": "inconclusive [inhibitor, partial curve, poor fit]"}, {"molecule": "CC(=O)c1c(O)c2ccccc2n(Cc2ccccc2)c1=O", "Potency": "inconclusive [inhibitor, single point]"}, {"molecule": "Cc1ccc(S(=O)(=O)N(C)c2cc(S(N)(=O)=O)c(C)cc2C)cc1", "Potency": "inconclusive [inhibitor, single point]"}, {"molecule": "NC(=O)CN1CCN(c2nc(-c3ccc(F)cc3)cs2)CC1", "Potency": "inactive"}, {"molecule": "COc1ccc(/C=C/C(=O)OCc2csc(-c3ccccc3)n2)cc1OC", "Potency": "inconclusive [inhibitor, single point]"}, {"molecule": "CS(=O)(=O)c1ccc(-c2nnc(NC(=O)C3=COCCO3)o2)cc1", "Potency": "inactive"}, {"molecule": "CCOc1ccc2c(c1)sc(N)[n+]2Cc1cc(C)cc2cccnc12", "Potency": "inconclusive [inhibitor, full curve, poor fit]"}, {"molecule": "COc1ccc(C(C(=O)NC(C)(C)C)N(CCc2ccccc2)C(=O)CCC(=O)Nc2cc(C)on2)cc1", "note": "(configuration not stated)", "Potency": "inconclusive [inhibitor, single point]"}, {"molecule": "O=C(OCc1ccccc1)C1CCCN1C(=O)c1cccs1", "note": "(configuration not stated)", "Potency": "inconclusive [inhibitor, single point]"}, {"molecule": "COC(=O)[C@@]12C[C@@H](CC(=O)NCCC(C)C)C(=O)N(Cc3ccccc3)C1=CCC(C)(C)C2", "Potency": "inconclusive [inhibitor, single point]"}, {"molecule": "O=[N+]([O-])c1cc(-c2csc(NCCc3nc4cc(C(F)(F)F)ccc4n3CCCO)n2)ccc1Cl", "Potency": "inconclusive [inhibitor, single point]"}, {"molecule": "CCSc1nnc(NC(=O)C2CCN(S(=O)(=O)c3ccccc3C(F)(F)F)CC2)s1", "Potency": "inconclusive [inhibitor, partial curve, poor fit]"}, {"molecule": "COc1ccc(NC(=O)C[C@H]2C(=O)N(C3CCCCC3)C[C@@H]2c2ccccc2)cc1", "Potency": "inactive"}, {"molecule": "O=C(CSc1nc2ccsc2c(=O)n1Cc1ccccc1F)NCc1ccccc1", "Potency": "inconclusive [inhibitor, single point]"}, {"molecule": "O=C(NCc1ccccc1)C(c1ccccc1)n1c(-c2ccccn2)nc2ccccc21", "note": "(configuration not stated)", "Potency": "active: 7.94 µM"}, {"molecule": "COc1ccc(S(=O)(=O)N(C)Cc2nc(-c3cccc(C)c3)no2)cc1", "Potency": "inconclusive [inhibitor, single point]"}, {"molecule": "CC(C)Cc1cc(C(=O)Nc2cc(Br)ccc2O)no1", "Potency": "inconclusive [inhibitor, single point]"}, {"molecule": "CN(C)CCn1c(=N)n(CC(O)c2ccc(Cl)c(Cl)c2)c2ccccc21", "note": "(configuration not stated)", "Potency": "inconclusive [inhibitor, partial curve, poor fit]"}, {"molecule": "CCC(CNC(=O)c1c(C)nn(-c2ccccc2)c1Cl)c1ccccc1", "note": "(configuration not stated)", "Potency": "inconclusive [inhibitor, full curve, poor fit]"}, {"molecule": "N#Cc1ccc(-c2nc3c4ccccc4ccn3c2Cc2ccccc2C(F)(F)F)cc1", "Potency": "inconclusive [inhibitor, partial curve, poor fit]"}, {"molecule": "O=C(O)CCn1c(=O)[nH]c2ccccc2c1=O", "Potency": "inactive"}, {"molecule": "Cc1ncc(CO)c(/C=N/NC(=O)c2cc(Br)ccc2O)c1O", "Potency": "inactive"}, {"molecule": "Cc1cccc(-n2ccnc2SCC(=O)Nc2nccs2)c1C", "Potency": "inconclusive [inhibitor, single point]"}, {"molecule": "Clc1cccc(OCc2nnc(-c3ccccc3Br)o2)c1", "Potency": "inconclusive [inhibitor, single point]"}, {"molecule": "N/C(=N\\OC(=O)c1cccc(Br)c1)c1ccccn1", "Potency": "active: 6.31 µM"}, {"molecule": "O=C(Cn1nc(Cc2cccnc2)c2ccccc2c1=O)Nc1cccc(C(F)(F)F)c1", "Potency": "inactive"}, {"molecule": "COc1cc(N2C(=O)C=CC2=O)ccc1N1C(=O)C=CC1=O", "Potency": "inconclusive [inhibitor, single point]"}, {"molecule": "CCC(CC)C(=O)N(C)c1c(C)nc2c(OCc3ccc(C(F)(F)F)cc3)cccn12", "Potency": "inconclusive [inhibitor, partial curve, poor fit]"}, {"molecule": "Clc1ccc(SCCOCCN2CCCCC2)cc1", "Potency": "inconclusive [inhibitor, single point]"}, {"molecule": "COc1ccc(CN(C)C(=O)c2cccc(S(=O)(=O)N3CCc4ccccc43)c2)c(OC)c1", "Potency": "inconclusive [inhibitor, single point]"}]}]}
